In all, about 48,000 compounds went through this assay and about 550 (1.1%) were called active. Roughly 4% stayed inconclusive and do not appear here. No stated cut-off is given here; in the data, active means potency below about 15 µM; inconclusive means mostly about 16 µM to 33 µM; inactive means weaker than that. Some of the results follow.
Target: Lysosomal acid glucosylceramidase (Homo sapiens) (UniProt P04062)
Experiment: Glucocerebrosidase;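 further: the screen sought inhibitors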
Settings: purified enzyme, resorufin glucoside fluorescence (screen aimed at inhibitors), 20 min
Method in brief: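 Normal human glucocerebrosidase (0.2 nM final) was assayed with resorufin β-D-glucopyranoside (30 uM final) in 50mM citric acid/KH2PO4, 10mM sodium taurocholate, 0.01% tween-20, pH 5.9. Compounds were titrated; fluorescence (Ex 548, Em 600) read after 20 min at RT.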
Potency means the concentration at half of the fitted maximal effect.

Chain of UniProt P04062 (P04062 whole entry, looked up): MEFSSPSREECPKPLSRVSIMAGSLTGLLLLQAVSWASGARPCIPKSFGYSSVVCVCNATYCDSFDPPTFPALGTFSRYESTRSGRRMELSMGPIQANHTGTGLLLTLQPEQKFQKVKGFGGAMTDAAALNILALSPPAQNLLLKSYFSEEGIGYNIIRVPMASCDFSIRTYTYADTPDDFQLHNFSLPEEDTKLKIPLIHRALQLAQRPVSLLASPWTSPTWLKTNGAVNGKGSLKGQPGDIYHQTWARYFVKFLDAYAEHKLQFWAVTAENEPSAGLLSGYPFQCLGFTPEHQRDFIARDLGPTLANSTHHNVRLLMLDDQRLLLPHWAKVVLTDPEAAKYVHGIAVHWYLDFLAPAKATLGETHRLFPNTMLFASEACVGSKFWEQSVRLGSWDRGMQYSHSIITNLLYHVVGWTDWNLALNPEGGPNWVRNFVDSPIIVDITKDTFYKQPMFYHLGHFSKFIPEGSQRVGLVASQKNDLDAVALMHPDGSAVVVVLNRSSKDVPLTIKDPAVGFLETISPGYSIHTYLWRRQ

| SMILES | Potency |
| --- | --- |
| CCc1ccc2[nH]c(=O)c(CN(CCCN3CCOCC3)C(=O)Nc3ccc(F)cc3)cc2c1 | inactive: > 76.9 µM |
| COc1ccc(CCNc2oc(-c3ccc(OC)c(OC)c3)nc2C#N)cc1 | inactive: > 76.9 µM |
| Cc1ccc2ncnc(NCCCN3CCOCC3)c2c1 | inactive: > 76.9 µM |
| O=C(NCc1cccnc1)NC1CCCN1S(=O)(=O)c1ccc(Cl)cc1 (stereo unspecified) | inactive: > 76.9 µM |
| CCNc1nc(N)nc(Oc2ccc(OCCOc3ccccc3)nn2)n1 | inactive: > 76.9 µM |
| COC(=O)c1ccccc1NC(=O)Nc1cc(C)cc(C)n1 | inactive: > 76.9 µM |
| Cc1cccc(N2CCN(C(=O)c3ccncc3)CC2C)c1 (stereo unspecified) | inactive: > 76.9 µM |
| CN(C)c1nccc(Nc2ccccc2)c1C#N | inactive: > 76.9 µM |
| CCCCCOC(=O)c1ccccc1C(=O)O | inactive: > 76.9 µM |
| O=C(C1CCC1)N1CCc2cc(S(=O)(=O)NCc3cccnc3)ccc21 | inactive: > 76.9 µM |
| COCCNC(=O)c1noc2c1CCc1cc(OC)ccc1-2 | inactive: > 76.9 µM |
| O=S(=O)(c1ccc(S(=O)(=O)N2CCCN(Cc3ccccc3)C2)cc1)N1CCCCCC1 | inactive: > 76.9 µM |
| COc1cc(C)nc(NS(=O)(=O)c2ccccc2)n1 | inactive: > 76.9 µM |
| O=C(c1ccccc1)c1cncc(Br)c1 | inactive: > 76.9 µM |
| COc1ccccc1OCCOCCn1cnc2ccccc2c1=O | inactive: > 76.9 µM |
| CCN(Cc1cc2ccccc2[nH]c1=O)C(=O)C1CCCCC1 | inactive: > 76.9 µM |
| CCCn1c(Nc2nc3ccccc3n2C)nc2ccccc21 | inactive: > 76.9 µM |
| CCC1Oc2ccccc2N(CC(=O)Nc2ccccc2OC)C1=O (stereo unspecified) | inactive: > 76.9 µM |
| COC(=O)C1(C)NC(c2cccs2)C2C(=O)N(c3ccc(F)cc3)C(=O)C21 (stereo unspecified) | inactive: > 76.9 µM |
| O=C(CCN1C(=O)C2C3C=CC(C3)C2C1=O)NC1CCCc2ccccc21 (stereo unspecified) | inactive: > 76.9 µM |
| O=C(Cn1cnc2ccccc2c1=O)Nc1ccc(-c2nnc3n2CCCCC3)cc1 | inactive: > 76.9 µM |
| CC(C)CNS(=O)(=O)c1ccc(CCC(=O)O)cc1 | inactive: > 76.9 µM |
| CC(C)(C)c1ccc(-c2noc(CCC(N)=O)n2)cc1 | inactive: > 76.9 µM |

| SMILES | Potency |
| --- | --- |
| CCCOc1ccc(N2C(=O)CC(NCc3ccncc3)C2=O)cc1 (stereo unspecified) | inactive: > 76.9 µM |
| CCOC(=O)C1CCN(C(=O)C2c3ccccc3C(=O)N(C)C2c2ccc(OC)cc2)CC1 (stereo unspecified) | inactive: > 76.9 µM |
| COc1ccccc1-c1nnc2sc(COc3ccc(F)cc3)nn12 | inactive: > 76.9 µM |
| C=C1N(CCCCCC(=O)O)C(=O)OC12CCCCC2 | inactive: > 76.9 µM |
| COC(=O)Cc1[nH]nc2c1C1(C(=O)N(Cc3ccccc3)c3ccccc31)C(C#N)=C(N)O2 (stereo unspecified) | inactive: > 76.9 µM |
| CCc1cc(=O)oc2cc(OC(C)=O)cc(OC(C)=O)c12 | inactive: > 76.9 µM |
| Cc1nn(-c2ccccc2)c(C)c1NC(=O)c1cccs1 | inactive: > 76.9 µM |
| O=C(Nc1ccc2c(c1)CCC2)c1cnccn1 | inactive: > 76.9 µM |
| CCCCC(CC)Cn1c2nc3ccccc3nc2c2c(=N)oc(C)nc21 (stereo unspecified) | inactive: > 76.9 µM |
| CC(NC(=O)Cc1ccsc1)c1ccc(S(N)(=O)=O)cc1 (stereo unspecified) | inactive: > 76.9 µM |
| COc1c(F)c(F)c(C(=O)Nc2ccc(NC(=O)c3ccco3)cc2)c(F)c1F | active: 1.52 µM |
| Cc1[nH]c2ccccc2c1C(=O)COC(=O)C1CC(=O)N(Cc2ccco2)C1 (stereo unspecified) | inactive: > 76.9 µM |
| Cc1cccc(Cn2c(SCCO)nc3c2c(=O)n(C)c(=O)n3C)c1 | inactive: > 76.9 µM |
| Cc1ccc(NC(=O)C2CCN(C(=O)NC3CCCCC3)CC2)cc1Cl | inactive: > 76.9 µM |
| Cc1cccc(-c2noc(CCC(=O)NCc3ccccc3)n2)c1 | inactive: > 76.9 µM |
| CCOc1ccccc1NC(=O)CC1Nc2ccccc2NC1=O (stereo unspecified) | inactive: > 76.9 µM |
| O=C(CSC1=NCCS1)Nc1ccccc1F | inactive: > 76.9 µM |
| CN(CC(=O)Nc1ccncc1)S(=O)(=O)c1ccc(Cl)cc1 | inactive |
| Cc1cc(C)n(-c2nc3ccccc3nc2N2CCN(C(=O)c3ccccc3)CC2)n1 | inactive: > 76.9 µM |
| NC(=O)c1c(N)sc(=S)n1CC1CCCO1 (stereo unspecified) | inactive: > 76.9 µM |
| COc1cccc(C(=O)CSc2nnnn2C)c1 | inactive: > 76.9 µM |
| CC(=O)NCC(=O)NC(C(=O)Nc1ccc2c(c1)OCCO2)c1ccccc1 (stereo unspecified) | inactive: > 76.9 µM |
| COC(=O)c1cc(Oc2ccc(C(=O)OC)cc2N)cc(C(=O)OC)c1 | inactive: > 76.9 µM |
